± gives the standard deviation of the averaged measurements. The list shows a part of the results.
The sequences below were run on PfAP2-LT AP2 domain (GST-tagged) (assay: gcPBM binding intensity (ln(normalized median fluorescence intensity)); higher = stronger DNA binding).
Method in brief: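 Each value is the highest Masliner-normalised natural-log median intensity across replicate spots of either orientation of a probe. The probes were primer-extended double-stranded 36-bp intergenic genomic sequences on an Agilent 4 × 180k array, alongside negative controls, exposed for 1 h to GST-tagged P. falciparum DNA-binding domains expressed in E. coli. Bound protein was picked up with Alexa488 anti-GST antibody and scanned at 488 nm.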

| Sequence | gcPBM binding intensity (ln) |
| --- | --- |
| ATGTAAATATATATATGTACTAATTAGTAGTTTACG [XGTACX_site6271] | 9.15 ± 0.46 |
| TCCTTATTACTTTTTTAAGTCGTAATGAAAGAAAAA [CACACA_negctrl_site1497] | 8.14 ± 0.35 |
| CATACATACATACATACACACATACAGATATATATA [CACACA_site4890] | 9.4 ± 0.38 |
| TTTTATAAATTATAATTCTATTATCTGTTCTTTTTA [TGCATGCA_negctrl_site487] | 8.68 ± 0.61 |
| ATCTTAACTCTATGCACACATAAAAGTATATAAATA [CACACA_site2256] | 8.87 ± 0.35 |
| TACGTTCTGATATATACACACCTGGTATTAATTATG [CACACA_site7113] | 9.2 ± 0.44 |
| AGAAAAATTATATATACACACTTATATTTATATATA [CACACA_site5555] | 8.69 ± 0.44 |
| AGTATACGCAAACACACACACACAAAAAAAAAAAAA [CACACA_site426] | 9.91 ± 0.53 |
| TATTATATTTATATTTGTACTTAAAATATTATACAC [XGTACX_site2881] | 8.71 ± 0.45 |
| AAATAAGAAAATCATAGTACATAGGAATAGAAGAAC [XGTACX_site3135] | 9.15 ± 0.45 |
| AATGTCATGATACATACACACACATACACATACACA [CACACA_site8665] | 9.67 ± 0.3 |
| TATTAAATATTGTAATGTACATATATAATATAATAT [XGTACX_site1809] | 8.57 ± 0.33 |
| ATATCTTATTTTCCTTGTACTTATTTCATAATTACA [XGTACX_site3894] | 8.91 ± 0.33 |
| CAATAAACCATTTTTTGTACATAAAAATAGGTATTG [XGTACX_site1892] | 8.62 ± 0.38 |
| AATTTCCCATATTACACACATACTATGATATATAAA [CACACA_site3834] | 8.88 ± 0.32 |
| TAAATATGTATAAATTGTACAAAATATATGAATAGT [XGTACX_site5659] | 9.01 ± 0.39 |
| TTTTTTTTTTTAAATTGTACTTATTTTATATTATAT [XGTACX_site1077] | 8.54 ± 0.56 |
| CATACACCCATACATACACACATACATATATATATA [CACACA_site8591] | 9.62 ± 0.15 |
| ATATAATGTTTCACATGTACAAACAACACAAAAAAA [XGTACX_site1899] | 8.84 ± 0.45 |
| AAAAGATATATTATATGTACTAATTATATGATAAAT [XGTACX_site4192] | 8.6 ± 0.54 |
| AATTATGAAAAATCAAGTACAAACAAAATCATAATT [XGTACX_site5665] | 9.1 ± 0.42 |
| AAAGAGAAATTTAAATGTACATTTGTTCTAAGTGTA [XGTACX_site3602] | 8.61 ± 0.49 |

| Sequence | gcPBM binding intensity (ln) |
| --- | --- |
| TTAAAAAAAGAAAAAAAAAAAAAAAAAAAAAAACAT [CACACA_negctrl_site475] | 8.64 ± 0.61 |
| TATAAAAATATTTCTACACACATTAATATTTATATA [CACACA_site6661] | 8.67 ± 0.41 |
| TATTATATTCTGCTTACACACATATATATATATATA [CACACA_site3060] | 9.5 ± 0.085 |
| GTGATAATTGCTTGGTGTACCCACATATATATATAT [XGTACX_site1636] | 9.38 ± 0.32 |
| GTTCTAAATATTATTGCATGTTGCACGTTTCTCTGT [TGCATGCA_site159] | 9.26 ± 0.38 |
| TTCTGTTGGAATATATGTACATAATAAAAAAAAATA [XGTACX_site1741] | 8.48 ± 0.47 |
| AATAAATAAAAAAAAAAAAAAAAAAAAAAAAAAAAA [XGTACX_negctrl_site343] | 8.14 ± 0.47 |
| TTTTTTTTTTTTGTAATACACACCACTATATGTTAT [CACACA_site1844] | 8.92 ± 0.49 |
| TGTAGTCTGGAGAAAAGTACACAGTATCTGGTAACA [XGTACX_site2010] | 8.78 ± 0.53 |
| AGTTTTATAAAAATATGTACTTATATACACATGTAT [XGTACX_site4022] | 8.98 ± 0.45 |
| TATGGCAAAACATTCACACATATTTATATATGTGTA [CACACA_site5588] | 8.88 ± 0.32 |
| TATTCTGGTGTAAATGCACACAGAAGAAGAAAAAAA [CACACA_site9225] | 8.98 ± 0.54 |
| AAGGACACCTTCAAAACACACATACAAATAAATAGA [CACACA_site5771] | 9.13 ± 0.57 |
| AAAATTAAATTATAAGCACACACATATATATATATA [CACACA_site9105] | 9.41 ± 0.23 |
| TACATACCTATATACACATGCATATTTACATATATT [TGCATGCA_site206] | 9.19 ± 0.35 |
| TACATACAGATATATACACACATATATAATATATAT [CACACA_site4376] | 9.21 ± 0.42 |
| GTAAAAATACAAAAGGTGCTCAAACAATATAATACA | 9.03 ± 0.47 |
| AATGGATTGATAAGTGGTACACACATATATATTATA [XGTACX_site6086] | 9.07 ± 0.27 |
| GAATATTAAACAAACACACACACATATATTTATATA [CACACA_site7563] | 9.73 ± 0.27 |
| TATATAATATATATGACACACATATTTATATAAATA [CACACA_site4054] | 8.81 ± 0.4 |
| TTGATATGTACAGGCACACATAAATTTCACAAATAT [CACACA_site3999] | 9.16 ± 0.4 |
| CGTATTATTTTATAAACACACAAGGGGGCATGTATA [CACACA_site6489] | 9.475 ± 0.0071 |

| Sequence | gcPBM binding intensity (ln) |
| --- | --- |
| CTTTAGTTTTTAATGTGTACTGAATTTGAATAGTAG [XGTACX_site7920] | 8.59 ± 0.4 |
| ATATAATTAAAAACATGTACATATATATATATATAT [XGTACX_site2882] | 9.62 ± 0.085 |
| CATAAATGTATATAAACATGCAAGGACAGACTTTTA [TGCATGCA_site900] | 8.92 ± 0.37 |
| TAAGTCGTTATAAGCACACACATAAATAAAAATAAA [CACACA_site1574] | 9.12 ± 0.3 |
| AAGGGTTATAAAAATTGTACTTTTTTTATTTTTTTT [XGTACX_site1313] | 8.6 ± 0.49 |
| TCAATTTTTTAATGTTGTACTTTGTAAAAAAAAATA [XGTACX_site8481] | 8.17 ± 0.41 |
| ATATATTTATATAGGTGTACATATTTTGCTATTCAA [XGTACX_site5199] | 8.75 ± 0.38 |
| ATACCAAATGAATAATGTACATACGAACATACATAT [XGTACX_site1301] | 9.1 ± 0.37 |
| GTACATTGTAAGGATGGAAAAGCTAAACATTATAAT [XGTACX_negctrl_site339] | 8.9 ± 0.33 |
| ATATTTTTAACCAAGGACACAATTCTTGTATTGTTA [CACACA_negctrl_site1326] | 8.59 ± 0.5 |
| AAAAGATTAAGTAGAATAATGTTCTTTCCCAACATA [GTGCAC_negctrl_site223] | 8.38 ± 0.45 |
| CATTTAGAATAAGGCACACATAAAGAACACTTTCCA [CACACA_site130] | 8.87 ± 0.45 |
| TTATCTTAATTGTGATTATAAAGATATTCTTTCTAT [GTGCAC_negctrl_site410] | 8.4 ± 0.57 |
| CAACCTCATAATATTTAACACACAAAATTATATGTA [CACACA_site8496] | 8.85 ± 0.35 |
| ATATATACATATATATGTACGTATATTTTTATTTCT [XGTACX_site6198] | 9.07 ± 0.42 |
| TATAAACCCACCTACACACACAACGTAAATGCATTG [CACACA_site2238] | 9.65 ± 0.28 |
| ATTTAACAACTTCAAACACACAATATAGATTTATAT [CACACA_site7067] | 8.73 ± 0.4 |
| AACATACACATATACACACACACATATATACATATA [CACACA_site1093] | 9.89 ± 0.23 |
| AAAAAAAAAAAAACATGTACATAAATGTAAAAAAGT [XGTACX_site8158] | 9.52 ± 0.54 |
| GCTTTTGAAAATATACACATGTTAGGAATACAGGGG [TGCATGCA_negctrl_site480] | 9.36 ± 0.26 |
| TATAATAACAATTTAGTGCATATAATAATATTTTAT | 8.55 ± 0.44 |
| ACATATAAAATGTATACACACAAATATTACAGAGAT [CACACA_site4920] | 9.29 ± 0.41 |

| Sequence | gcPBM binding intensity (ln) |
| --- | --- |
| ATTTTTTTTCTTTTTTTTTTACATTTTTTTCTTTTT [CACACA_negctrl_site1289] | 8.78 ± 0.48 |
| GCCATTAATTTATACACACACATTATGATTTTTTAT [CACACA_site754] | 9.29 ± 0.36 |
| CCTGAACACATACATACACACACACTAATAAAAAAA [CACACA_site8023] | 9.69 ± 0.46 |
| ATGCATATGTTTATTGCACACACCAAAAAGAAAACA [CACACA_site403] | 9.35 ± 0.33 |
| TACAAACTATGATGCACACATATATATATGTATACA [CACACA_site1226] | 9.15 ± 0.3 |
| AATTTAAACAAGGATCCACACACCCCAAAAAAAAAA [CACACA_site8125] | 9.55 ± 0.23 |
| AATAATTAAAATTATCTACACACCTTTATAAATATA [CACACA_site9300] | 8.56 ± 0.47 |
| TAAATTTAGAAACACACACACATATATATATATATA [CACACA_site847] | 9.995 ± 0.0071 |
| TTTATATTATTTTAAACATGCACAAGTATAATTTAT [TGCATGCA_site233] | 8.43 ± 0.4 |
| TTTTCATATGAACAATGTACACATCGTATAATTCTG [XGTACX_site4756] | 8.83 ± 0.48 |
| TGAACAGACGAGCACACACACACATATATATATATA [CACACA_site1019] | 10.3 ± 0.2 |
| CTCATAAAAATAACGTTAACATAAATTTATTGTGAT [XGTACX_negctrl_site169] | 8.81 ± 0.37 |
| AATATAAAACATATCACACATATGTATTTATGTATA [CACACA_site5763] | 8.81 ± 0.34 |
| TATATGTCAATATCTACACACATATATATAATTATT [CACACA_site3156] | 9.02 ± 0.38 |
| ATACATATTAAAGGATGTACACTTATATTTTTTAGA [XGTACX_site5406] | 8.63 ± 0.38 |
| TGTGGGAATAACCACACACACACACGCATATAAATA [CACACA_site7634] | 9.88 ± 0.38 |
| ATAAAATAACACAACGTTGACAAATTTGGATGACTC [XGTACX_negctrl_site324] | 9.32 ± 0.4 |
| TTTATTAAAATATTCTCACACACCAAAATATGTATG [CACACA_site932] | 9.05 ± 0.58 |
| ATATATGTAGATATATGTACATATATAGGTAGATAT [XGTACX_site7589] | 9.34 ± 0.46 |
| TTGATGTTGGTAGGATGTACGGTACCGGTAGTATTT [XGTACX_site6642] | 8.94 ± 0.42 |
| AATTTATTTTTTTGATGTACATACAATTTATCACAA [XGTACX_site5936] | 8.69 ± 0.38 |
| AAGGAAAAGTAAAGAAGTACTGTACCGCCAAAAAAA [XGTACX_site2607] | 8.98 ± 0.56 |

Source: the supplement of paper PMC11417369
